Laboratory results taken from paper PMC10621992.
Results are given in words; binding and its absence hold for the method and conditions named. Binding seen in cells or lysates may run through a third protein. Some entries that bind do so weakly or less than the wild type.

The chains behind the UniProt entries cited, without tags or fusion partners.
UniProt P51451: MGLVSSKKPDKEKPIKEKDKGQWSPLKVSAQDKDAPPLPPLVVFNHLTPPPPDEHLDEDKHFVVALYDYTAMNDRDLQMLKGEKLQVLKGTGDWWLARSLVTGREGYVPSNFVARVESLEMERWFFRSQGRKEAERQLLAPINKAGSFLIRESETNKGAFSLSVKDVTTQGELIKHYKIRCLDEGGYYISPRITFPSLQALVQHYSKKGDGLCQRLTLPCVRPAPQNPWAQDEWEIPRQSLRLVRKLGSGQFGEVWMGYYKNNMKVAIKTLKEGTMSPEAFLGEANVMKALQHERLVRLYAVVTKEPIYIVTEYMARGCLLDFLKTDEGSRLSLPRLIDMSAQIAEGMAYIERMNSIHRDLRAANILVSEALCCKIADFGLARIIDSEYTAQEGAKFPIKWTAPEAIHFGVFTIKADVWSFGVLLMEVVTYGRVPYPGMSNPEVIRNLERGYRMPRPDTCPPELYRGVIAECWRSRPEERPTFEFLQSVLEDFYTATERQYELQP
UniProt Q14653: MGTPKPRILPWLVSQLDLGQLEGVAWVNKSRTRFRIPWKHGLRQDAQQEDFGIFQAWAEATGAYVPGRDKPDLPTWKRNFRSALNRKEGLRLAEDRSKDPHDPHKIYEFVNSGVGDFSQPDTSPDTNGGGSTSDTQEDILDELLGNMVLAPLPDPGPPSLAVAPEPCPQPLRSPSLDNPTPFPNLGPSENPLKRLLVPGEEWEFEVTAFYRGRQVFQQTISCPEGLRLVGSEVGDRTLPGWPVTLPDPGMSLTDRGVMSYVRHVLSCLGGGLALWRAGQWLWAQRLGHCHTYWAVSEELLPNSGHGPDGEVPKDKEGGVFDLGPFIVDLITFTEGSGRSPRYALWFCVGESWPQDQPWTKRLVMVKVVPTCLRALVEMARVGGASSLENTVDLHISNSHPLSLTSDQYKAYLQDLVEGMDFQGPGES
UniProt Q7Z434: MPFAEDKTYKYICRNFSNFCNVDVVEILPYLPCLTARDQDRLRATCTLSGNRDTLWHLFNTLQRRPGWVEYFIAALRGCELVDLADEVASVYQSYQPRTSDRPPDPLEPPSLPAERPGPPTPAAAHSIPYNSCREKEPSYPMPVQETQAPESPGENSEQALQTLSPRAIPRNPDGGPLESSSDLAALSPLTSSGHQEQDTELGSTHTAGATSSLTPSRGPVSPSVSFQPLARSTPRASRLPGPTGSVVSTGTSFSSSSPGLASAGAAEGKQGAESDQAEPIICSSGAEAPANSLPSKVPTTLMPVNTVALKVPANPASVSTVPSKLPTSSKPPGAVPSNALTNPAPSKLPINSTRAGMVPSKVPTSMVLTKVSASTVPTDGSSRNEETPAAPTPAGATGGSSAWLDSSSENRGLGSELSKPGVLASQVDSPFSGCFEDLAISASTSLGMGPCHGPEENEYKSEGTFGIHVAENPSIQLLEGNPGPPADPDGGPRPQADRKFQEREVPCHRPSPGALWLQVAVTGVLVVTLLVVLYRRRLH

Columns and labels:
Assay in all cases: co-IP
[1] = target: BLK-Flag, stably expressed in Jurkat cells (human) (UniProt P51451)
[2] = target: T1, TBK1, endogenous in U87MG cells (human (endogenous in U87MG)) (UniProt Q9UHD2)
T1 sequence: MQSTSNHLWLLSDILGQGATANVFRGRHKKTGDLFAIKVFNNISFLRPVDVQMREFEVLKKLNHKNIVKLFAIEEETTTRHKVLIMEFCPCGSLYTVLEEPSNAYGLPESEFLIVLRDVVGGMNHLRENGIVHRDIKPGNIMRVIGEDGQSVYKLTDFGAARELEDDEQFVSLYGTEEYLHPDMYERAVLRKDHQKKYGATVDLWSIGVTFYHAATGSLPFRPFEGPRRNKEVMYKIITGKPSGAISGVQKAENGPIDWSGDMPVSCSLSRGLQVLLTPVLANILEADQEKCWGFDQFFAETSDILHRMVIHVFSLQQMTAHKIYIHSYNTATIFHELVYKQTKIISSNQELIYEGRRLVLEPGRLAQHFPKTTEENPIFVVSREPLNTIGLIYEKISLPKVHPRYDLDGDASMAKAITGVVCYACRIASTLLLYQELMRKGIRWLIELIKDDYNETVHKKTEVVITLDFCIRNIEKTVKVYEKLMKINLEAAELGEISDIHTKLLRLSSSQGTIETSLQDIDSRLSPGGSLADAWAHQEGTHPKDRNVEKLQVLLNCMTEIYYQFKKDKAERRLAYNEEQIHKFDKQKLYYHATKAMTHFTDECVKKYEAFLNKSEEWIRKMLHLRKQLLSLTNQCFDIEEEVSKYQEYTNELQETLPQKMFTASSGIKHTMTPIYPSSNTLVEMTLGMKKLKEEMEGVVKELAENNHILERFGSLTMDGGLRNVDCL

[3] = target: BLK, overexpressed in HEK293 cells (human) (UniProt P51451)
[4] = target: T2, TBK1, overexpressed in HEK293 cells (UniProt Q9UHD2)
T2 sequence: T1 sequence

IRF3, endogenous in Jurkat cells (from UniProt Q14653 1-427)
binding [1]: binds

IRF3, endogenous in U87MG cells (from UniProt Q14653 1-427)
binding [2]: binds

IRF3, overexpressed in HEK293 cells (from UniProt Q14653 1-427)
binding [3]: binds
binding [4]: binds

VISA (virus-induced-signaling adapter), overexpressed in HEK293 cells (from UniProt Q7Z434 1-540)
binding [3]: no binding
